{"source": "PubChem BioAssay AID1745845", "about": "(National Center for Advancing Translational Sciences (NCATS), 2022)", "note": "Where “and” joins values, the source holds several entries; their conditions need not be identical. Equal entries are not always repeated. Hit rate of the full screen: of about 360,000 compounds, about 2,600 (0.72%) were called active. The inconclusive results got no clear call from the source; some entries with a clear call stand among them for comparison. The call rests on the fitted dose curve; in most records, active means well fitted inhibition curve with a large enough effect; inconclusive means small, poorly fitted or top-dose-only effect; inactive means no such curve, though single readings can be large or run the other way. Where the call is inconclusive, the potency comes from a doubtful curve fit. Potency means the concentration at half of the fitted maximal effect; tags describe the fitted curve by direction and shape."}
{"experiment": "Primary qHTS for Inhibitors of ATXN expression; further: nearly all actives have a fitted effect of over 55% in size", "details": "HEK-293 ATXN2-luciferase reporter, luminescence, 24 h; series mostly up to 57 µM", "description": "University of Utah School of Medicine, Salt Lake City, Utah\nSpinocerebellar ataxia type 2 (SCA2) is a multisystem neurodegenerative disease caused by a dominantly acting mutation leading to expansion of a polyQ domain in the ataxin-2 protein (ATXN2). SCA2 patients develop progressive ataxia and later lose function in other neuronal systems. Prominent parkinsonian signs develop in some patients. Like many neurodegenerative disorders, no symptomatic or disease-modifying treatments are known.\nThe primary objective of the proposed research is to identify compounds inhibiting ATXN2 expression and to test them for efficacy in SCA2 mouse models. We have developed a cell-based assay paired with an in vivo mouse model using identical luciferase expression constructs. This approach takes advantage of an ATXN2-luciferase transgene, with the luciferase gene flanked by the upstream and downstream portions of the ATXN2 gene. Here we describe a 5-7 dose quantitative high thoroughput screen (qHTS) for compounds lowering ATXN2 expression. We screened the NIH Molecular Libraries Small Molecule Repository (MLSMR) and NCGC's mechanistically annotated (MIPE) and drug repurposing (NPC) collections of compounds for lowering expression of an ATXN2-luciferase reporter in HEK-293 cells. The assay is a multiplexed cell viability assay to ensure target reduction in the absence of cytotoxicity. Secondary qHTS assays included a CMV-luciferase reporter expressed in HEK-293 cells as well as a biochemical assay using recombinant luciferase to detect inhibitors of the reporter enzyme. Compounds that inhibit ATXN2 expression but is not cytotoxic were selected for confirmatory and secondary screens.\nPROTOCOL TABLE (as described by Inglese J, Shamu CE and Guy RK. 2007)\nSEQUENCE No. (e.g., 1, 2, 3, etc.); […] (e.g., Cells, Incubation, Reagent, etc.); VALUE; DESCRIPTION.\n1; Cells; 4 uL; white, solid bottom, 1536-well Greiner assay plate.\n2; Incubation; 2 hr; 37 degree C in 5% humidified CO2.\n3; Compounds; 23 nL; Kalypsis pintool (Wako USA) equipped with a 1536-well pin head.\n4; Incubation; 24 hr; 37 degree C in 5% humidified CO2.\n5; Reagent; 1 uL; Gly-Phe-7-Amino-4-trifluoromethylcoumarin.\n6; Incubation; 30 min; 37 degree C in 5% humidified CO2.\n7; Detection; Fluorescence; ViewLux plate reader (PerkinElmer).\n8; Reagent; 3 uL; SteadyGlo luciferase solution (Promega).\n9; Incubation; 5 min; room temperature.\n10; Detection; Luminescence; ViewLux plate reader (PerkinElmer).\nNOTES (numbers refer to Sequence numbers above)\n1. S2 cells expressing ATXN2-luciferase reporter were suspended in phenol-red free DMEM and dispensed in assay plates using a Multidrop Combi dispenser (Thermo Fisher Scientific).\n2. Assay plates were incubated. Evaporation was prevented by covering assay plates with metal lids containing holes to allow gas diffusion.\n3. Compounds were added in a dose response manner with the final concentrations of 57, 11.4, 2.28, 0.46, 0.091, 0.018, 0.0037 uM. Vehicle-only plates, with DMSO being pin-transferred to columns 5-48, were inserted uniformly at the beginning and the end of each library to monitor and record any shifts in assay performance.\n5. 125 uM Gly-Phe-7-Amino-4-trifluoromethylcoumarin (MP Biomedicals) working concentration was used at a final concentration of 25 uM.\n7. To assess cell viability; the assay plates were read using the ViewLux high-throughput CCD imager (PerkinElmer), wherein single end-point fluorescence measurement was acquired (excitation 405/10; emission 540/25 nm).\n8. Detection reagent SteadyGlo Luciferase (Promega) was added to the assay plate.\n10. Luminescence is then measured on the ViewLux imager equipped with a clear emission filter using a 2 sec exposure. All screening operations were performed on a fully integrated robotic system (Kalypsys) containing one RX-130 and two RX-90 anthropomorphic robotic arms (Staubli).\n[…]"}
{"smiles": "Cn1c(SCCOc2ccccc2Cl)nnc1-c1cccs1", "Potency": "inactive"}
{"smiles": "COc1cccc(S(=O)(=O)c2nc(C)c3c(n2)CCC3)c1", "Potency": "inconclusive: 37.7 µM [inhibitor, single point]"}
{"smiles": "O=S(=O)(Nc1ccc(-c2csc(-c3ccccc3)n2)cc1)c1ccc(F)cc1", "Potency": "inconclusive: 25.1 µM [inhibitor, partial curve, poor fit]"}
{"smiles": "O=C1CSC(=Nc2cccc(Cl)c2Cl)N1Cc1cccnc1", "Potency": "inconclusive: 35.5 µM [inhibitor, partial curve, poor fit]"}
{"smiles": "Cn1cncc1C#Cc1c(C=O)[nH]c2ccccc12", "Potency": "inconclusive: 39.8 µM [inhibitor, partial curve, poor fit]"}
{"smiles": "CC(=O)c1ccc(N2C(=O)N(Cc3cccc(C(F)(F)F)c3)c3ccccc3S2(=O)=O)cc1", "Potency": "inactive"}
{"smiles": "CC(=O)Nc1ccc(NC(=O)CCCc2nc(-c3ccc(C(C)(C)C)cc3)no2)cc1", "Potency": "inconclusive: 0.316 µM [inhibitor, partial curve, poor fit]"}
{"smiles": "Oc1cccc(-c2nnc(-c3cccc(O)c3)nn2)c1", "Potency": "inconclusive: 37.7 µM [inhibitor, single point]"}
{"smiles": "O=C(c1nc(-c2ccc(Cl)cc2)n2c1CCCCC2)N1CCN(c2ccccc2F)CC1", "Potency": "inactive"}
{"smiles": "O=C(C[n+]1cc(Br)cc(Br)c1)c1cccc([N+](=O)[O-])c1", "Potency": "inconclusive: 2.12 µM [inhibitor, partial curve, poor fit]"}
{"smiles": "O=C(CCN1CCCC1)Nc1ccccc1", "Potency": "inconclusive: 39.8 µM [inhibitor, partial curve, poor fit]"}
{"smiles": "O=C(NCc1ccc(F)cc1)C(=O)Nc1nc(C23CC4CC(CC(C4)C2)C3)cs1", "Potency": "inactive"}
{"smiles": "COc1cccc(C2NC(c3cccc(OC)c3O)C(C)C(=O)C2C)c1O", "note": "(stereo unspecified)", "Potency": "inconclusive: 28.2 µM [inhibitor, partial curve, poor fit]"}
{"smiles": "CC(NC(=S)NC1CCCCC1)c1ccc(C(C)(C)C)cc1", "note": "(stereo unspecified)", "Potency": "inconclusive: 39.8 µM [inhibitor, single point]"}
{"smiles": "OCCN1CCN(c2nc(-c3ccccc3)c3cc(Cl)ccc3n2)CC1", "Potency": "inactive"}
{"smiles": "Cc1ccc(C(Nc2ccccn2)c2ccc3cccnc3c2O)cc1", "note": "(stereo unspecified)", "Potency": "inconclusive: 39.8 µM [inhibitor, single point]"}
{"smiles": "CC(C)(C)[C@@H]1CCC(=O)N(CC[C@H](Sc2ccccc2)c2ccccc2)CC1", "Potency": "inconclusive: 39.8 µM [inhibitor, partial curve, poor fit]"}
{"smiles": "Cc1ccnc2nc(C(=O)OCCOc3ccc(F)cc3)nn12", "Potency": "inconclusive: 0.377 µM [inhibitor, partial curve, poor fit]"}
{"smiles": "C/C(=N\\NC(=O)CN1CCN(Cc2ccccc2)CC1)c1cccs1", "Potency": "inconclusive: 37.7 µM [inhibitor, single point]"}
{"smiles": "CC(=O)Oc1ccc(N(C(C)=O)S(=O)(=O)c2ccc(C)cc2C)c2ccccc12", "Potency": "inconclusive: 20 µM [inhibitor, single point]"}
{"smiles": "O=C(NCc1ccc(F)cc1)C1CCCN(S(=O)(=O)c2ccc(Br)s2)C1", "note": "(stereo unspecified)", "Potency": "inactive"}
{"smiles": "Cc1ccc(Cn2nc(C)c(NC(=O)c3cc(-c4ccc5c(c4)OCO5)on3)c2C)cc1", "Potency": "inconclusive: 15.8 µM [inhibitor, partial curve, poor fit]"}
{"smiles": "O=C(Nc1nc2ccccc2s1)C1c2ccccc2Oc2ccccc21", "Potency": "inactive"}
{"smiles": "CCCCCC(=O)O[C@]1(C(C)=O)CC[C@H]2[C@@H]3CCC4=CC(=O)CC[C@]4(C)[C@H]3CC[C@@]21C", "Potency": "active: 28.2 µM and inconclusive: 28.2 µM [inhibitor, partial curve, poor fit]"}
{"smiles": "CC(=O)c1ccc(NC(=O)c2ccc(NC(=O)c3ccco3)cc2)cc1", "Potency": "inactive"}
{"smiles": "CCC(Sc1nc(C)cc(C)n1)C(=O)Nc1cc(C)on1", "note": "(stereo unspecified)", "Potency": "inactive"}
{"smiles": "O=[N+]([O-])c1ccc(O)c(N=Cc2sc3ccccc3c2O)c1", "Potency": "inconclusive: 22.4 µM [inhibitor, partial curve, poor fit]"}
{"smiles": "CCOCCCNC(=O)/C(C#N)=C/c1ccc([N+](=O)[O-])o1", "Potency": "inconclusive: 23.8 µM [inhibitor, single point]"}
{"smiles": "CC(=O)N(CCc1ccccc1)c1ccc2c(c1)C1CC2CCN1C(=O)OCc1ccccc1", "note": "(stereo unspecified)", "Potency": "inconclusive: 25.1 µM [inhibitor, single point]"}
{"smiles": "Cc1ccc(CN2CCC[C@]3(N[C@H](c4ccc(C(F)(F)F)cc4)[C@@H]4C(=O)N(Cc5ccccc5)C(=O)[C@@H]43)C2=O)cc1", "Potency": "inactive"}
{"smiles": "CCc1ccc(-n2c(SC(CC)C(=O)N(CC)CC)nc3n[nH]c(C)c3c2=N)cc1", "note": "(stereo unspecified)", "Potency": "inconclusive: 25.1 µM [inhibitor, single point]"}
{"smiles": "COc1ccc(C2=NN(c3nc4ccccc4s3)C(=O)C2)cc1", "Potency": "inconclusive: 26.7 µM [inhibitor, single point]"}
{"smiles": "CCOC(=O)c1ccc(NC(=S)NC2CC(C)(C)NC(C)(C)C2)cc1", "Potency": "inconclusive: 25.1 µM [inhibitor, single point]"}
{"smiles": "CC(=O)/C=C1/C(=O)Nc2ccccc21", "Potency": "inconclusive: 37.7 µM [inhibitor, single point]"}
{"smiles": "CCOc1cccc(-c2nc3c(s2)CCc2onc(-c4cccc([N+](=O)[O-])c4)c2-3)c1", "Potency": "inactive"}
{"smiles": "Cc1nc(Nc2cccc(O)c2)c2c3c(sc2n1)CCC3", "Potency": "inconclusive: 25.1 µM [inhibitor, single point]"}
{"smiles": "CCN(C(=O)CCc1nc(-c2ccc(C)cc2)no1)c1cc(C)ccc1C", "Potency": "inactive"}
{"smiles": "COc1ccc(/C=N/NC(=O)c2ccccc2OC)cc1COc1ccccc1[N+](=O)[O-]", "Potency": "inconclusive: 25.1 µM [inhibitor, single point]"}
{"smiles": "COc1cc(OC)c2c(-c3ccccc3)cc(=O)oc2c1C(CCN1CCCCC1)c1ccc(N(C)C)cc1", "note": "(stereo unspecified)", "Potency": "inconclusive: 35.5 µM [inhibitor, single point]"}
{"smiles": "CCN1CCC(N(Cc2ccc3c(c2)OCO3)C(=O)Nc2cc(Cl)ccc2C(=O)OC)CC1", "Potency": "active: 25.1 µM"}
{"smiles": "Clc1ccc2c(c1)C(N1CCNCC1)Cc1ccccc1S2", "note": "(stereo unspecified)", "Potency": "inconclusive: 31.6 µM [inhibitor, single point]"}
